± gives the standard deviation of the averaged measurements. In all, about 1,900 compounds were measured (“CD40L-induced NF-kB luciferase activity, plate-corrected, relative to DMSO (0) and IKK inhibitor VII (-100) controls”: median about 0.032, lowest 2% from about -26 on). This is one part of the list.

The assay deals with BL2-NFkB-Luc. Put plainly: CD40L-induced NF-kB luciferase activity, plate-corrected, relative to DMSO (0) and IKK inhibitor VII (-100) controls (% normalized activity); higher = more NF-kB reporter activity (less inhibition). The following applies: 9.4 µM; stimulus: tCD40L 64 ng/ml; 4.5 h. The protocol: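 BL2 B cells with a stable NF-kB response-element luciferase reporter (BL2-NFkB-Luc), 384-well. Cells were pre-incubated with compound at 9.4 uM for 1 h at 37 C, then stimulated with 64 ng/ml trimerized CD40L for 4.5 h; luciferase was read with Steady-Glo. Signal was normalised per plate in Genedata (median DMSO neutral control = 0, median IKK inhibitor VII at 50 uM = -100) with Assay Median plate-pattern correction; duplicate plates.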
Consider `NCCc1c[nH]c2ccc(F)cc12`, for which the “CD40L-induced NF-kB luciferase activity” value was 3.72 ± 5.3.
In the case of `Cc1ccc(/C=C2/C(=O)NC(=O)N(C)C2=O)cc1`, the “CD40L-induced NF-kB luciferase activity” value stood at 0.524 ± 0.61.
As for `CCOC(=O)c1cncn1C(C)c1ccccc1` (centres undefined), the “CD40L-induced NF-kB luciferase activity” value was -5.88 ± 4.6.
With `c1cnc2c(c1)ccc1ncccc12` the figure was 7 ± 1.8.
Consider `CCn1c(O)c(C(=O)CC2NCCc3ccccc32)c(=O)n(CC)c1=S` (centres undefined), for which the “CD40L-induced NF-kB luciferase activity” value is 5.93 ± 5.
For the compound `O=C1CC[C@@]2(O)[C@H]3Cc4ccc(O)c5c4[C@@]2(CCN3CC2CC2)[C@H]1O5`, the “CD40L-induced NF-kB luciferase activity” value is -8.23 ± 1.6.
With `C[C@H]1CCCC(=O)CCCC=Cc2cc(O)cc(O)c2C(=O)O1` the figure was -13.7 ± 1; with `NCC1(c2ccc3c(c2)OCCO3)CCCC1`, -4.25 ± 5.6.
With `CN1C(=O)CN=C(c2ccc(Cl)cc2)c2cc(Cl)ccc21` the figure was 0.372 ± 5.5; with `CCC1(c2ccccc2)C(=O)N(COC)C(=O)N(COC)C1=O`, -30.1 ± 1.2; with `O=c1cccc2n1C[C@H]1C[C@@H]2CN2CCCC[C@@H]12`, -0.568 ± 1.9.
As to `c1ccc(Cn2ccnc2)cc1`, the “CD40L-induced NF-kB luciferase activity” value is 0.751 ± 1.6.
`CC(C)C[C@H]1C(=O)N2CCCC2[C@]2(O)O[C@](NC(=O)[C@@H]3C=C4c5cccc6[nH]cc(c56)CC4N(C)C3)(C(C)C)C(=O)N12` (some centres undefined): the “CD40L-induced NF-kB luciferase activity” value was 0.994 ± 0.31.
In the case of `CC(C)[C@H]1C(=O)N2CCC[C@H]2[C@]2(O)O[C@](NC(=O)[C@@H]3C=C4c5cccc6[nH]cc(c56)C[C@H]4N(C)C3)(C(C)C)C(=O)N12` it was -3.13 ± 6.7.
On to `CC(C)(C)C(O)C(Oc1ccc(Cl)cc1)n1cncn1` (centres undefined), for which the “CD40L-induced NF-kB luciferase activity” value is -8 ± 8.5.
In the case of `c1ccc2c(c1)Nc1ccccc1S2`, the “CD40L-induced NF-kB luciferase activity” value worked out at 9.06 ± 2.
In the case of `O=c1c2ccccc2[se]n1-c1ccccc1` it was 2.41 ± 3.7; in that of `C[N+]1(C)C2CCC1CC(OC(=O)C(CO)c1ccccc1)C2` (centres undefined), -0.877 ± 0.48.
With `C[C@H]1CC[C@@]2(C)[C@@H](CC[C@@H]3[C@@H]2CC[C@]2(C)[C@@H](O)CC[C@@H]32)C1`, the “CD40L-induced NF-kB luciferase activity” value is 5.1 ± 1.3.
Regarding `NCC(O)c1ccc(O)cc1` (centres undefined), the “CD40L-induced NF-kB luciferase activity” value was 1.15 ± 1.4.
With `S=C1NCCN1` the figure was 3.68 ± 0.28.
In the case of `CC(Cc1ccccc1)NCC(=O)Nc1cc(N(C)C)nc2ccccc12` (centres undefined) it was 2.09 ± 1.1; in that of `Cc1ccsc1C(=O)C1CCCN(Cc2cc3ccccc3o2)C1` (centres undefined), 2.94 ± 3.7.
Turning to `Cc1ccc(-n2c(C)cc(/C=C3/C(=O)NC(=O)N(C)C3=O)c2C)cc1`, the “CD40L-induced NF-kB luciferase activity” value was -5.17 ± 2.5.
As to `C[C@]12CC[C@@H](O)C[C@@H]1CC[C@@H]1[C@@H]2CC[C@]2(C)[C@@H](O)CC[C@@H]12`, the “CD40L-induced NF-kB luciferase activity” value was -7.7 ± 8.6.
As to `OC1CCCCC1N1CCC(c2ccccc2)CC1` (centres undefined), the “CD40L-induced NF-kB luciferase activity” value was -5.95 ± 3.6.
With `COc1ccc2c(c1)CC1(CN2C)C(=O)NC(=O)N(CCc2ccccc2)C1=O` (centres undefined) the figure was -0.818 ± 1.4; with `CC(=O)OC1C2CCC1C(N1CCCC1)CC2` (centres undefined), -2.77 ± 0.79; with `CC12CCC3C(CC=C4CC(O)CCC43C)C1C/C(=C\c1cccc(F)c1)C2=O` (centres undefined), -5.06 ± 1.9.
In the case of `CC12CC[C@H]3[C@@H](CCC4(O)C[C@H](O)CCC34C=NNC(=O)Cc3ccccc3)C1(O)CCC2C1=CC(=O)OC1` (some centres undefined) it was -1.26 ± 0.48.
With `CC12CN3CC(C)(CN(C1)C31CCOCC1)C2=O` the figure was -5.49 ± 5.5.
With `C[C@]12CC[C@@H](O)C[C@@H]1CC[C@@H]1[C@@H]2CC[C@]2(C)C(=O)CC[C@@H]12`, the “CD40L-induced NF-kB luciferase activity” value was 1.29 ± 3.4.
In the case of `CC[C@]12C=CCN3CCC4(c5cc(Br)c(OC)cc5N(C)C4[C@@](O)(C(=O)OC)[C@@H]1OC(C)=O)C32` (some centres undefined) it was 0.234 ± 7.5.
With `CC(C)[N+](C)(CCC(C(N)=O)(c1ccccc1)c1ccccc1)C(C)C` the figure was 3.26 ± 2.9.
On to `C#C[C@]1(O)CC[C@H]2[C@@H]3CCC4=CC(=O)CC[C@]4(C)[C@H]3CC[C@@]21C`, for which the “CD40L-induced NF-kB luciferase activity” value is -8.34 ± 4.1.
In the case of `O=c1[nH]c2ccccc2n1CCCN1CCC(n2c(=O)[nH]c3cc(Cl)ccc32)CC1`, the “CD40L-induced NF-kB luciferase activity” value was -5.01 ± 5.7.
Turning to `C[C@@H]1O[C@@H](O[C@H]2C[C@@H](O)[C@]3(CO)[C@H]4[C@H](O)C[C@]5(C)[C@@H](C6COC(=O)C6)CC[C@]5(O)[C@@H]4CC[C@]3(O)C2)[C@H](O)[C@H](O)[C@H]1O` (some centres undefined), the “CD40L-induced NF-kB luciferase activity” value worked out at 2.54 ± 3.8.
With `O=C1CCCC2=C1C(c1cccnc1)Nc1ccccc1N2` (centres undefined), the “CD40L-induced NF-kB luciferase activity” value is -1.61 ± 2.8.
Regarding `C#CCN(C)C(C)Cc1ccccc1` (centres undefined), the “CD40L-induced NF-kB luciferase activity” value stood at 0.792 ± 0.45.
With `C[N+]1(C)CCOC(O)(c2ccc(-c3ccc(C4(O)C[N+](C)(C)CCO4)cc3)cc2)C1` (centres undefined) the figure was -3.22 ± 3.6; with `Nc1ccncc1`, 2.39 ± 3.6.
In the case of `C[C@]12CCC(=O)C=C1CC[C@@H]1[C@@H]2C(=O)C[C@]2(C)C(=O)CC[C@@H]12` it was -0.221 ± 7.7; in that of `COc1ccc(C(=O)N2CCCC2=O)cc1`, -3.54 ± 2.8; in that of `O=C(O)CCCc1ccc(N(CCCl)CCCl)cc1`, 0.841 ± 1.6.
With `CC(C)[C@@]1(NC(=O)[C@@H]2C[C@@H]3c4cccc5[nH]cc(c45)C[C@H]3N(C)C2)O[C@@]2(O)[C@@H]3CCCN3C(=O)[C@H](Cc3ccccc3)N2C1=O` the figure was 0.32 ± 1.1; with `COc1ccc(OCC(=O)N2c3ccc(C)cc3C3CN(C)CCC32)cc1` (centres undefined), 0.261 ± 0.6.
For `CCOc1ccc(C2C(C#N)=C(N)Oc3c2c(=O)oc2ccccc32)cc1` (centres undefined), the “CD40L-induced NF-kB luciferase activity” value is 0.103 ± 1.5.
In the case of `CC(C)CC12CN3CCN(CC(C3)C1O)C2` (centres undefined) it was 0.868 ± 7.8; in that of `CC12CCC3C(CC=C4CC5(CCC43C)OCCO5)C1CCC2=O` (centres undefined), 4.19 ± 4.8; in that of `CCCC[N+]1(C)[C@@H]2CC(OC(=O)[C@H](CO)c3ccccc3)C[C@H]1[C@@H]1O[C@@H]12` (some centres undefined), -0.479 ± 2.2.
`CC(CCc1ccccc1)NC(C)C(O)c1ccc(O)cc1` (centres undefined): the “CD40L-induced NF-kB luciferase activity” value is 2.16 ± 8.5.
Take `CC(C)C[C@H](NC(=O)[C@@H]1CCCN1C(=O)[C@@H](N)Cc1ccc(O)cc1)C(=O)NCC(N)=O`: the “CD40L-induced NF-kB luciferase activity” value is -28.7 ± 4.1.
With `C[C@H](O)[C@H]1CC[C@H]2[C@@H]3CCC4=CC(=O)CC[C@]4(C)[C@H]3CC[C@]12C`, the “CD40L-induced NF-kB luciferase activity” value was 5.24 ± 2.7.
With `O=C1CN=C(c2ccccc2F)c2cc(Cl)ccc2N1`, the “CD40L-induced NF-kB luciferase activity” value is -0.0643 ± 0.96.

The values above are taken from the supplement of paper PMC3656093.
